This note sets out measurements from PubChem BioAssay AID1745853 (National Center for Advancing Translational Sciences (NCATS), 2022).

What all share (test): Primary Screen for Target Class Profiling of Small Molecule Inhibitors of Methyltransferases
Assay [1] deals with Glycine N-methyltransferase (Homo sapiens) (UniProt Q14749). The conditions noted are these: purified enzyme, MTase-Glo SAH luminescence; measured here: GNMT inhibition; at 40 µM; stronger effect = lower value. An outline of the steps:
(§1)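 Each enzyme was reacted with SAM and its substrate, with compounds tested once at 40 uM; SAH formed was read by MTase-Glo luminescence.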

Assay [2] has as its target Guanidinoacetate N-methyltransferase (Homo sapiens) (UniProt Q14353). The conditions noted are these: purified enzyme, MTase-Glo SAH luminescence; measured here: GAMT inhibition; at 40 µM; stronger effect = lower value. In short, it runs like this: as §1
The target of assay [3] is Histamine N-methyltransferase (Homo sapiens) (UniProt P50135). The conditions noted are these: purified enzyme, MTase-Glo SAH luminescence; measured here: HNMT inhibition; at 40 µM; stronger effect = lower value. An outline of the steps: as §1
For assay [4], the target named is Nicotinamide N-methyltransferase (Homo sapiens) (UniProt P40261). The conditions noted are these: purified enzyme, MTase-Glo SAH luminescence; measured here: NNMT inhibition; at 40 µM; stronger effect = lower value. In short, it runs like this:
as §1

For assay [5], the target named is Phenylethanolamine N-methyltransferase (Homo sapiens) (UniProt P11086). The conditions noted are these: purified enzyme, MTase-Glo SAH luminescence; measured here: PNMT inhibition; at 40 µM; stronger effect = lower value. In short, it runs like this: as §1

SMILES strings stand for the structures. This is one part of the list. Shown are side measurements of this screen, not its main read-out; they come without a call.
% is set by controls: 0 for no effect and ±100 for the full control effect.

As to `C[C@@H]1O[C@@H](O[C@H]2[C@H](OC(=O)[C@]34CCC(C)(C)C[C@H]3C3=CCC5[C@@]6(C)C[C@H](O)[C@H](O[C@@H]7O[C@H](CO)[C@@H](O[C@H]8OC[C@](O)(CO)[C@H]8O)[C@H](O)[C@H]7O)[C@@](C)(CO)C6[C@H](O)C[C@@]5(C)[C@]3(C)C[C@H]4O)OC[C@H](O)[C@@H]2O)[C@H](O)[C@H](O)[C@H]1O[C@@H]1OC[C@@H](O)[C@H](O[C@@H]2OC[C@](O)(CO)[C@H]2O)[C@H]1O` (stereo not given in full), the activity change, negative = inhibition in assay [1] is 0%; in assay [2], 2.29%; in assay [3], 5.97%; in assay [4], -7.74%; in assay [5], 8.23%.
Take `COc1cccc([C@@H]2CCN(Cc3cn[nH]c3C(=O)O)C[C@H]2O)c1`: the activity change, negative = inhibition in assay [1] is -4.52%; in assay [2], -8.93%; in assay [3], -3.62%; in assay [4], -11.4%; in assay [5], -13.1%.
With `CC(=O)c1ccc2c(c1)C(O)C(C(C)(C)O)O2` (stereo not given), the activity change, negative = inhibition is 3.04% in assay [1]; 3.81% in assay [2]; 10.2% in assay [3]; -8.54% in assay [4]; -0.228% in assay [5].
`COc1ccc(-c2cc3n(n2)CC(C)(C(=O)NCc2ccccc2OC)N(c2ccc(C)c(Cl)c2)C3=O)cc1` (stereo not given): the activity change, negative = inhibition in assay [1] was 3.19%; in assay [2], 2.65%; in assay [3], 0.723%; in assay [4], 0.89%; in assay [5], -3.06%.
In the case of `O=C1CCN(Cc2cccc(F)c2)CCCCCCN1`, the activity change, negative = inhibition in assay [1] is -3.4%; in assay [2], -6.21%; in assay [3], -1.14%; in assay [4], -1.97%; in assay [5], -2.21%.
Take `CC(C)Cn1c(=O)c2ccc(C(=O)NC3CCCC3)cc2n2c(=O)n(Cc3ccccc3Cl)nc12`: the activity change, negative = inhibition in assay [1] is 6.08%; in assay [2], 1.41%; in assay [3], 6.01%; in assay [4], 3.66%; in assay [5], 8.16%.
Take `CN1C(=O)c2cc(C(=O)NCCSCc3ccco3)nn2CC1(C)C(=O)NCc1ccc(F)cc1` (stereo not given): the activity change, negative = inhibition in assay [1] was -6.84%; in assay [2], -2.02%; in assay [3], 3.5%; in assay [4] it was -5.11%; in assay [5] it was -3.71%.
For the molecule `COC(=O)c1cc2n(n1)CC(C)(C(=O)NC1CCCCCC1)N(c1ccc(C)cc1C)C2=O` (stereo not given), the activity change, negative = inhibition in assay [1] is 2.56%; in assay [2] it was 0%; in assay [3], -1.77%; in assay [4] it was 7.23%; in assay [5], 3.37%.
The like results for `Cc1nnc(-c2cc(-c3cnn(C)c3)ccn2)n1-c1ccccc1` were, in that order, -3.95%, -1.41%, -16.7%, -2.27% and -1.75%.
Regarding `Cc1cccc(N2C(=O)c3cc4occc4n3CC2(C)C(=O)NC2CCCCCCC2)c1C` (stereo not given), the activity change, negative = inhibition in assay [1] was -1.92%; in assay [2], 5.07%; in assay [3], 3.48%; in assay [4] it was 1.79%; in assay [5], -1.04%.
On to `CN1C(=O)c2cc(C(=O)N3CCOCC3)nn2CC1(C)C(=O)NC1CCCCCC1` (stereo not given), for which the activity change, negative = inhibition came out at 0.613% in assay [1]; 0.742% in assay [2]; 3.31% in assay [3]; 8.61% in assay [4]; 2.9% in assay [5].
For the molecule `CC1(C(=O)NC2CCCCCC2)Cn2c(nc3ccccc32)C(=O)N1Cc1ccccc1Cl` (stereo not given), the activity change, negative = inhibition in assay [1] is -4.56%; in assay [2], -1.91%; in assay [3], -0.538%; in assay [4], -8.05%; in assay [5] it was -10.6%.
With `CCn1c(=O)n(CC)c2cc(S(=O)(=O)N3CCN(c4cccc(C)c4)C(C)C3)ccc21` (stereo not given), the activity change, negative = inhibition was 3.39% in assay [1]; 0% in assay [2]; 0.592% in assay [3]; -2.17% in assay [4]; 0.138% in assay [5].
For the molecule `COc1ccccc1CNC(=O)C1(C)Cn2nc(-c3ccccc3)cc2C(=O)N1Cc1ccc(Cl)cc1` (stereo not given), the activity change, negative = inhibition is -0.974% in assay [1]; 3.3% in assay [2]; -0.104% in assay [3]; 1.54% in assay [4]; -1.44% in assay [5].
For the molecule `CCc1cccc(N2C(=O)c3cc(-c4ccccc4)nn3CC2(C)C(=O)NCCCOC)c1` (stereo not given), the activity change, negative = inhibition in assay [1] is -3.21%; in assay [2], 5.22%; in assay [3], -2.29%; in assay [4], -3.95%; in assay [5], -8.9%.
The like results for `CC1=C[C@H]2[C@@H](CC1=O)[C@H](C)C[C@H](O)[C@H]2C(C)C` were, in that order, -6.74%, -22.6%, 2.59%, -25.3% and -8.9%.
Turning to `CC(C)NC(=O)c1ccc2c(=O)n(Cc3ccccc3)c3nn(CC(=O)c4ccccc4)c(=O)n3c2c1`, the activity change, negative = inhibition in assay [1] was 2.64%; in assay [2], 1.39%; in assay [3], 5.92%; in assay [4], 2.96%; in assay [5], 6.06%.
Take `CCOC(=O)c1cc2n(n1)CC(C)(C(=O)NCc1ccccc1)N(Cc1ccccc1OC)C2=O` (stereo not given): the activity change, negative = inhibition is -0.48% in assay [1]; 7.67% in assay [2]; 0.464% in assay [3]; -8.04% in assay [4]; -3.08% in assay [5].
The like results for `COc1ccccc1CN1C(=O)c2cc3sccc3n2CC1(C)C(=O)NC1CCCCCCC1` (stereo not given) were, in that order, -0.667%, 0%, 4.23%, 1.56% and -1.62%.
With `CC(C)CCNC(=O)c1ccc2c(c1)nc(Nc1n[nH]c3ccc(-c4ccccc4OC(F)(F)F)cc13)n2C1CCC(O)CC1` (stereo not given), the activity change, negative = inhibition in assay [1] is 5.28%; in assay [2] it was -20%; in assay [3] it was 4.03%; in assay [4], -48%; in assay [5], -6.17%.
`CCCn1c(=O)c2ccc(C(=O)NC3CCCCC3)cc2n2c(=O)n(Cc3cccc(OC)c3)nc12`: the activity change, negative = inhibition in assay [1] is 5.03%; in assay [2] it was 0%; in assay [3], 9.53%; in assay [4] it was -0.224%; in assay [5], 5.01%.
Turning to `C=CCCC(=O)N1c2cccc3c2[C@@H](C[C@H]1C(N)=O)CN(c1ccccc1)C3=O`, the activity change, negative = inhibition is -3.29% in assay [1]; -4.17% in assay [2]; -0.241% in assay [3]; -7.25% in assay [4]; -3.75% in assay [5].
As to `C=C1/C(=C/C=C2\CCC[C@]3(C)[C@@H]([C@H](C)/C=C/C(=O)C4CC4)CC[C@@H]23)C[C@@H](O)C[C@@H]1O`, the activity change, negative = inhibition is -17.9% in assay [1]; -22.6% in assay [2]; 0.24% in assay [3]; -30.9% in assay [4]; -8.5% in assay [5].
For the molecule `CCOc1ccc(C2c3cccn3-c3sc4c(c3CN2C(=O)Nc2cccc(C)c2)CCCC4)cc1` (stereo not given), the activity change, negative = inhibition is -0.287% in assay [1]; 2.85% in assay [2]; 7.65% in assay [3]; 2.42% in assay [4]; 9.48% in assay [5].
Regarding `CCOC(=O)c1cc2n(n1)CC(C)(C(=O)NC1CCCC1)N(c1ccccc1OC)C2=O` (stereo not given), the activity change, negative = inhibition in assay [1] turned out to be 6.03%; in assay [2], 0%; in assay [3], 4.63%; in assay [4], 6.94%; in assay [5], 3.5%.
The like results for `CCOC(=O)c1cc2n(n1)CC(C)(C(=O)NCCC(C)C)N(c1ccc(C)c(C)c1)C2=O` (stereo not given) were, in that order, 4.33%, 1.73%, 4.05%, 11.7% and 1.8%.
Regarding `COc1cc2c(cc1NS(=O)(=O)c1ccc3c(c1)n(C)c(=O)n3C)n(C)c(=O)n2C`, the activity change, negative = inhibition in assay [1] is -1.57%; in assay [2], 0.161%; in assay [3], 10.9%; in assay [4] it was -1.64%; in assay [5] it was 2.21%.
On to `COc1ccc2c(c1)c(NC(C)=O)c1n2CC(C)(C(=O)NC2CCCC2)N(Cc2ccccc2)C1=O` (stereo not given), for which the activity change, negative = inhibition in assay [1] was 3.64%; in assay [2] it was 1.4%; in assay [3], 7.92%; in assay [4] it was 10.4%; in assay [5], 3.78%.
The like results for `OCCN(CCO)c1nc(N2CCCCC2)c2nc(N(CCO)CCO)nc(N3CCCCC3)c2n1` were, in that order, -14.5%, 2.95%, -3.32%, -9.05% and 2.49%.
On the same counts, the results for `CC1(C(=O)N2CCC(c3ccccc3)CC2)CCc2cnc(Nc3ccncc3)nc21` (stereo not given) are -12.5%, -6.65%, -18.8%, -27.5% and -11.2%.
As to `O=C(NC1CC1)c1ccc2c(=O)nc3c(-c4ccc(Cl)cc4)n[nH]n3c2c1`, the activity change, negative = inhibition in assay [1] is -0.514%; in assay [2], 0.483%; in assay [3], 8.36%; in assay [4], 10.8%; in assay [5], 4.48%.
`C=Cc1ccc(Cn2nc3n(CC(C)C)c(=O)c4ccccc4n3c2=O)cc1`: the activity change, negative = inhibition is 0.372% in assay [1]; 0% in assay [2]; 4.6% in assay [3]; -4.26% in assay [4]; 0.674% in assay [5].
The like results for `Cc1ccc(C)c(CSc2nnc3n(CC(C)C)c(=O)c4ccc(C(=O)NC(C)C)cc4n23)c1` were, in that order, -0.118%, -0.784%, 5.14%, -3.91% and -2.29%.
For `COc1cccc(CNS(=O)(=O)c2cc3[nH]c(=O)[nH]c3cc2C)c1`, the activity change, negative = inhibition in assay [1] is 14.5%; in assay [2], 4.48%; in assay [3], 12.3%; in assay [4], 2.14%; in assay [5] it was 6.68%.
